From the supplement of paper PMC12217912
The list shows a part of the results. The full chains were built here from the parent and the listed change. Values near 0.05 are background.

B1: TEV protease; numbered along this chain (parent)
chain: MGESLFKGPRDYNPISSSICHLTNESDGHTTSLYGIGFGPFIITNKHLFRRNNGTLVVQSLHGVFKVKDTTTLQQHLVDGRDMIIIRMPKDFPPFPQKLKFREPQREERICLVTTNFQTKSMSSMVSDTSCTFPSGDGIFWKHWIQTKDGQCGSPLVSTRDGFIVGIHSASNFTNTNNYFTSVPKNFMELLTNQEAQQWVSGWRLNADSVLWGGHKVFMVKPEEPFQPVKEATQL

Variants of: B1
Experiment: raw area under fraction-flipped curve 0-4 h after induction (AUC4h, not background-subtracted), DNA-recorder readout of cleavage of the substrate (dimensionless); higher = more cleavage of the substrate by the protease variant
Settings: temperature: 34 °C; time window: 0-4 h after rhamnose induction
Description: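 In vivo DNA recorder in E. coli TOP10(DE3) ΔrhaA at 34 °C. Each TEVp single-site mutant (parent TEVp 0) is paired with a single-site variant of the 7-mer TEVs (canonical ENLYFQ|S). The substrate sits between flexible linkers in a Bxb1-sfGFP-TEVs-SsrA fusion, so cleavage stabilises Bxb1 and speeds flipping of a recombination array, read by NGS. The value is the raw area under the fraction-flipped curve over 0-4 h after rhamnose induction (AUC4h), with ≥20 reads per time point. It is not background-subtracted; inactive controls average about 0.047.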
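Further: Bxb1 expression induced with 0.2% (w/v) L-rhamnose at OD600 near 0.5, cultures sampled hourly, flipped fraction per protease–substrate barcode pair counted by paired-end Illumina sequencing.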

Variant	area with substrate ENAYFQS	area with substrate ENCYFQS	area with substrate ENDYFQS	area with substrate ENEYFQS	area with substrate ENGYFQS	area with substrate ENIYFQS	area with substrate ENKYFQS	area with substrate ENNYFQS	area with substrate ENQYFQS	area with substrate ENRYFQS	area with substrate ENSYFQS	area with substrate ENVYFQS	area with substrate ENHYFQS	area with substrate ENTYFQS	area with substrate ENFYFQS	area with substrate ENMYFQS	area with substrate ENPYFQS	area with substrate ENYYFQS	area with substrate ENWYFQS
MGESLFKGPRDYNPISSSICHLTNESDGHTTSLYGIGFGPFIITNKHLFRRNNGTLVVQSLHGVFKVKDTTTLQQHLVDGRDMIIIRMPKDFPPFPQKCKFREPQREERICLVTTNFQTKSMSSMVSDTSCTFPSGDGIFWKHWIQTKDGQCGSPLVSTRDGFIVGIHSASNFTNTNNYFTSVPKNFMELLTNQEAQQWVSGWRLNADSVLWGGHKVFMVKPEEPFQPVKEATQL [L99C]	0.0616	0.0559	0.0518	0.0551	0.0657	0.0939	0.0338	0.0785	0.0554	0.0534	0.071	0.0795							
MGESLFKGPRDYNPISSSICHLTNESDGHTTSLYGIGFGPFIITNKHLFRRNNGTLVVQSLHGVFKVKDTTTLQQHLVDGRDMIIIRMPKDFPPFPQKLNFREPQREERICLVTTNFQTKSMSSMVSDTSCTFPSGDGIFWKHWIQTKDGQCGSPLVSTRDGFIVGIHSASNFTNTNNYFTSVPKNFMELLTNQEAQQWVSGWRLNADSVLWGGHKVFMVKPEEPFQPVKEATQL [K100N]	0.0518		0.0689	0.075			0.0769		0.0452	0.0551	0.0671		0.103	0.0563					
MGESLFKGPRDYNPISSSICHLTNESDGHTTSLYGIGFGPFIITNKHLFRRNNGTLVVQSLHGVFKVKDTTTLQQHLVDGRDMIIIRMPKDFPPFPQKLTFREPQREERICLVTTNFQTKSMSSMVSDTSCTFPSGDGIFWKHWIQTKDGQCGSPLVSTRDGFIVGIHSASNFTNTNNYFTSVPKNFMELLTNQEAQQWVSGWRLNADSVLWGGHKVFMVKPEEPFQPVKEATQL [K100T]	0.0518			0.0602				0.0607	0.0767	0.0653				0.0565	0.0706	0.0905	0.0452	0.0498	
MGESLFKGPRDYNPISSSICHLTNESDGHTTSLYGIGFGPFIITNKHLFRRNNGTLVVQSLHGVFKVKDTTTLQQHLVDGRDMIIIRMPKDFPPFPQKLWFREPQREERICLVTTNFQTKSMSSMVSDTSCTFPSGDGIFWKHWIQTKDGQCGSPLVSTRDGFIVGIHSASNFTNTNNYFTSVPKNFMELLTNQEAQQWVSGWRLNADSVLWGGHKVFMVKPEEPFQPVKEATQL [K100W]	0.051		0.0699	0.0527	0.0625			0.0618	0.0582	0.0525	0.062	0.0717	0.0544	0.0587	0.0686	0.0913	0.0388		
MGESLFKGPRDYNPISSSICHLTNESDGHTTSLYGIGFGPFIITNKHLFRRNNGTLVVQSLHGVFKVKDTTTLQQHLVDGRDMIIIRMPKDFPPFPQKLKQREPQREERICLVTTNFQTKSMSSMVSDTSCTFPSGDGIFWKHWIQTKDGQCGSPLVSTRDGFIVGIHSASNFTNTNNYFTSVPKNFMELLTNQEAQQWVSGWRLNADSVLWGGHKVFMVKPEEPFQPVKEATQL [F101Q]	0.0466	0.0498	0.0506	0.0323	0.0629	0.0336	0.0732		0.044		0.0512	0.0644	0.0611	0.0389		0.0617	0.0521		
MGESLFKGPRDYNPISSSICHLTNESDGHTTSLYGIGFGPFIITNKHLFRRNNGTLVVQSLHGVFKVKDTTTLQQHLVDGRDMIIIRMPKDFPPFPQKLKFRKPQREERICLVTTNFQTKSMSSMVSDTSCTFPSGDGIFWKHWIQTKDGQCGSPLVSTRDGFIVGIHSASNFTNTNNYFTSVPKNFMELLTNQEAQQWVSGWRLNADSVLWGGHKVFMVKPEEPFQPVKEATQL [E103K]	0.0542		0.0682			0.142		0.0589	0.0614		0.0674	0.0742	0.0667		0.0673	0.07			
MGESLFKGPRDYNPISSSICHLTNESDGHTTSLYGIGFGPFIITNKHLFRRNNGTLVVQSLHGVFKVKDTTTLQQHLVDGRDMIIIRMPKDFPPFPQKLKFREYQREERICLVTTNFQTKSMSSMVSDTSCTFPSGDGIFWKHWIQTKDGQCGSPLVSTRDGFIVGIHSASNFTNTNNYFTSVPKNFMELLTNQEAQQWVSGWRLNADSVLWGGHKVFMVKPEEPFQPVKEATQL [P104Y]	0.0565	0.0443	0.0522	0.0558	0.0575	0.0506		0.0459	0.0555	0.0626	0.0598	0.0551			0.0464	0.0562	0.0092	0.0621	0.0426
MGESLFKGPRDYNPISSSICHLTNESDGHTTSLYGIGFGPFIITNKHLFRRNNGTLVVQSLHGVFKVKDTTTLQQHLVDGRDMIIIRMPKDFPPFPQKLKFREPKREERICLVTTNFQTKSMSSMVSDTSCTFPSGDGIFWKHWIQTKDGQCGSPLVSTRDGFIVGIHSASNFTNTNNYFTSVPKNFMELLTNQEAQQWVSGWRLNADSVLWGGHKVFMVKPEEPFQPVKEATQL [Q105K]	0.0151	0.0733	0.0486	0.0712	0.0576	0.121	0.0734	0.0522	0.0635	0.0608	0.0636	0.0844	0.0573	0.0567	0.0547		0.0657	0.0535	0.0643
MGESLFKGPRDYNPISSSICHLTNESDGHTTSLYGIGFGPFIITNKHLFRRNNGTLVVQSLHGVFKVKDTTTLQQHLVDGRDMIIIRMPKDFPPFPQKLKFREPNREERICLVTTNFQTKSMSSMVSDTSCTFPSGDGIFWKHWIQTKDGQCGSPLVSTRDGFIVGIHSASNFTNTNNYFTSVPKNFMELLTNQEAQQWVSGWRLNADSVLWGGHKVFMVKPEEPFQPVKEATQL [Q105N]	0.062	0.0705	0.0526	0.0584	0.0612		0.0714	0.057	0.0642	0.0559	0.0684	0.075		0.0574	0.083	0.0839		0.0722	0.0213
